# Over roughly 33,000 sequences, “E-score (-0.5 to 0.5)” has its median near -0.012; the highest 2% begin near 0.27. Some of the results follow.
# Target: T1, Vhr1 (UniProt P40522)
# T1 sequence: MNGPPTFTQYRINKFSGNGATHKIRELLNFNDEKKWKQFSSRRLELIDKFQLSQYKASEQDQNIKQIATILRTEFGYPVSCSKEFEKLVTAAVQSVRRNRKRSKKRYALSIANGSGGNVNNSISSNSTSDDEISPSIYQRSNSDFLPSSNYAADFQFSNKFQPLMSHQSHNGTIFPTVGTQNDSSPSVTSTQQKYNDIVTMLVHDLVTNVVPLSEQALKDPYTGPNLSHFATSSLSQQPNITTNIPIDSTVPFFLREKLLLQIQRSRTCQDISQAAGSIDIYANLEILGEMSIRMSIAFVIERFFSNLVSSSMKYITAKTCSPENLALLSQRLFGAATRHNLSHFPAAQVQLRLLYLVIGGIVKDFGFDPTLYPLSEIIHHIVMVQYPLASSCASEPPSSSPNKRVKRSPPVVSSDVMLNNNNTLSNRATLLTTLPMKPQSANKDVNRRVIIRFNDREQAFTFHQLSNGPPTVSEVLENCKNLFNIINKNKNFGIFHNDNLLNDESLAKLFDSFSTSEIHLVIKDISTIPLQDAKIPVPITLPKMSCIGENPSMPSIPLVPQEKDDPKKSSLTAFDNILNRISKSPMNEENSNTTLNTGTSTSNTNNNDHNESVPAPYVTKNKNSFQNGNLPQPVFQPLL
# Assay: PBM E-score (8-mer binding enrichment) (E-score (-0.5 to 0.5)); higher = stronger / more preferred TF binding; most listed sequences are background and not binding sites
# Details: protein concentration: 200 nM; construct: GST-full length
# Procedure, shortened: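 Yeast transcription factors carrying a GST tag, as full-length proteins or DNA-binding domains, were produced by PURExpress in vitro transcription/translation. About 100-200 nM protein was applied to universal all-10-mer Agilent arrays, double-stranded by primer extension on fresh or once-stripped slides. Bound protein was detected with fluorescent anti-GST, and scans were normalised with masliner. The Universal PBM Analysis Suite gave each ungapped eight-base word, pooled with its reverse complement, an E-score, a modified Wilcoxon-Mann-Whitney statistic.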
row,Sequence,PBM E-score
1,AAAGTGTG,0.014
2,AAAACTCC,-0.0572
3,GTCGTAAA,-0.104
4,CCAAATGA,0.133
5,GCAGTCAA,0.0401
6,AGCTGGGC,-0.127
7,AGCGGAAT,-0.0549
8,CGAACGCC,-0.298
9,GATCATTA,0.155
10,ACACGGTC,0.0707
11,AGTTACAG,-0.0387
12,CACGATAG,-0.00683
13,AATATTTA,-0.153
14,ATGCACTG,0.0983
15,AAATTCGA,-0.181
16,GGCATTGA,0.0174
17,AGATCGAC,-0.0907
18,TCCACACA,0.0281
19,CTAAAAAG,-0.279
20,CAGTGTCG,0.11
21,GCCAAGGC,-0.017
22,AAGCCCTA,-0.148
23,CTTAACAC,-0.0463
24,CCCTGCAA,-0.148
25,ACGGGAGT,0.239

row,Sequence,PBM E-score
1,CACCTCGC,-0.0515
2,AGTTATTG,0.0204
3,CAAGCGTA,-0.199
4,GTTATCGA,0.149
5,ACTTAAAA,-0.317
6,ATGCGCGC,0.265
7,ACGGTTGC,-0.0413
8,AAGGGGCC,-0.107
9,CTGGCCAA,-0.0386
10,CGGCTATC,-0.124
11,CACATTCC,0.111
12,CCCATAGG,-0.192
13,GTATCAAA,0.0743
14,CCTTGGCA,-0.191
15,ATTCCCGC,0.0182
16,CCCGCTGA,-0.0701
17,CCCTATTC,-0.0746
18,AGGAGCCG,-0.0921
19,AGAGAACA,-0.147
20,ACATAGCC,0.129
21,AACTATTC,-0.0198
22,ACTCCACC,0.222
23,GGTGGTCA,0.00378
24,TGTGGAAA,0.034
25,ATCTTTTC,-0.26

row,Sequence,PBM E-score
1,AGGCAGAG,-0.209
2,AAATCTTC,-0.274
3,GAATTCCA,-0.0684
4,CTAGATAG,-0.0804
5,ATACGGAA,-0.00421
6,ACCTGCCT,-0.0145
7,CCGATCGA,-0.0293
8,AGTCACGC,0.426
9,TCCCAGGA,-0.222
10,GATAGAAA,-0.262
11,TGGCCCCA,-0.236
12,ACTTGGGC,-0.126
13,CCTAAGAG,-0.287
14,AGAGAACC,-0.0613
15,ATTCCCGG,0.0191
16,AGGTAGAG,-0.231
17,CGGCAGTA,-0.109
18,ACAGCGAC,0.00078
19,AAGCTTGC,-0.243
20,GGACGCTA,-0.324
21,ACCGCGAC,0.238
22,CCGTAGAA,-0.33
23,GGCCCATA,-0.0614
24,TTAAGAAA,-0.191
25,AAAAATAA,-0.0845

row,Sequence,PBM E-score
1,CACGTGGG,-0.0182
2,AGAAAATA,-0.0162
3,CCCGGTCC,-0.12
4,GCTCAAGC,-0.169
5,GAAATCGA,-0.049
6,CCCTTCGA,-0.193
7,GAGGTTGC,-0.0739
8,AGAACTCC,-0.0316
9,GTGGGGTA,0.22
10,ACTCGTTG,0.0826
11,TGTTCGAA,-0.0984
12,AACATGAA,0.0738
13,CTCGTTTC,0.0108
14,CGAGGCAC,-0.0316
15,CCGTAATA,0.109
16,CGAGAGAA,6e-05
17,GGAATTAC,-0.128
18,CGCTCTCA,-0.128
19,AATAGGAT,0.0602
20,TACGTTGA,0.0682
21,AGAATCCT,-0.231
22,TAGTGTCA,0.226
23,AGCTTCAA,-0.278
24,TCCCGGAA,-0.0731
25,AAGACAGC,-0.134

row,Sequence,PBM E-score
1,ATTTTAAC,-0.195
2,ATTCACCC,0.135
3,AACCCCCT,-0.155
4,CGTTATCA,-0.0888
5,CTTATGAA,-0.0743
6,TACAGTAA,0.00648
7,GTTCGAAA,-0.141
8,AAGTTTTA,-0.19
9,ATAGGTTC,-0.0497
10,AAGCAATC,0.0299
11,AAAGTAGC,-0.16
12,ACTCTGTA,0.0725
13,ATGACGGG,0.134
14,ATTACATG,0.171
15,CATGGAAG,0.119
16,ATGACCAT,0.13
17,CACGAAGG,-0.0652
18,CTGCATGA,0.128
19,AACGACGT,0.0554
20,CCAACGCG,-0.021
21,AACGCCAT,-0.0891
22,GCAAACGA,-0.0335
23,ACGCGAGA,0.0117
24,CTATCTTC,-0.11
25,GAGCAAAC,0.0461

row,Sequence,PBM E-score
1,GAAGCGGA,0.0653
2,AGGACTAT,-0.00747
3,CCCGGCGA,0.197
4,CCCCTAAC,-0.141
5,CATCACAG,0.0153
6,CCCCCTAC,-0.185
7,CCAATGAA,-0.18
8,CGTGTATC,0.0909
9,ACCACTGA,-0.121
10,ATATAGTC,0.26
11,GGAGTACC,0.104
12,ATGAAATC,0.164
13,ACACCCGA,0.118
14,GCTGAACC,0.0318
15,AAGATTCC,0.0421
16,AGTATATG,0.239
17,CATTGACA,-0.0421
18,CCCTCGTA,0.05
19,CGCCCGGC,-0.0419
20,AGGGCGTG,-0.0396
21,GGAACCGA,0.0439
22,CGGGATTC,0.159
23,AACGCTAA,-0.123
24,CTTTGGTC,-0.0584
25,AGTTCTCC,-0.0759

row,Sequence,PBM E-score
1,CTAAATCC,0.044
2,GCTTGTAA,-0.0558
3,ATCCATGG,0.0727
4,CCTTGGTA,-0.0952
5,AGCACTAA,0.00464
6,AGGTAGGC,-0.0538
7,CACGTCGA,0.0334
8,CATTGAGG,-0.214
9,GGATCAAA,-0.0301
10,AAAGACGA,-0.0583
11,GGATCGCC,0.0753
12,GACAGGTA,-0.0817
13,AGGGAGAG,-0.0561
14,ACAAGTAC,0.00989
15,CACAGCAC,0.164
16,GGCTACAC,0.134
17,AATTTTCG,-0.296
18,AGGACAAG,-0.249
19,CGTATATA,-0.149
20,CTCACAAG,0.155
21,GAGATCAA,0.0698
22,AAGCTGAT,0.135

# Reference: the supplement of paper PMC3334620
